# In the supplement of paper PMC8728848:
# The other results are listed elsewhere or left out.
# B1: PX9961U-pdi-543-24-543 (Parabacteroides distasonis) (protein)
# chain: EEPVGEFLPGQVESEENIEGIVTGAYAVLDGYYASDAINSGCSNWQFGDVVSDDAYKGGGGTGDQNQIHLMEIFNANPTGIDFEARWAALYEGIKRCNQAIRLLNGSEVKNKEQRLAEMRFLRGHYYFNLKIIYNQIPWIDETLVDPNEYNKKSNIEFSSDQLWEKILEEFSAAYKVLPESQADYGRPTKMAARAYMAKVYLYQSKWKECLEACDEVIQSGKYELFPDFRNVFLPENDNCSEIIFAIQLSINDGSPNNENGSYGDRLLPPGGPYPVYGFLRPTQNLVNAYKTDVKGLPYNDGKDVSENDYVDVRLDHTLARPNIPFMDVQLYDWTPREASVYGPYSPKKRLVSLNSTYYSPIWPYVNALNFYVIRYADLLLWRAEAAIETGDLETGRKYINMIRERAKNTQHVKTMDQSQDAANYKVGVYDEPFKSKNEAVQALRMERRLEMAHEGIRFFDLVRWGVADEVINAYIAKEKVFRSHLQNAHFVKGKHEYFPIPQSMIDICGTEVMKQNPGY
# Assays:
# Assay in all cases: glycan array binding signal (z-score within array); higher = stronger binding
# Details in all cases: glycan notation: IUPAC condensed, linker removed
# Kdn(a2-3)Gal(b1-4)Glc = target: Kdn(a2-3)Gal(b1-4)Glc
# In short: (§1)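 Glycan array data came from 3228 arrays in the Consortium for Functional Glycomics database, and only arrays with an available protein sequence were kept. Glycan names were put into IUPAC-condensed notation, and columns mapping to the same glycan were averaged. The binding signal is a within-array Z-score, averaged across arrays of one protein sequence run at different concentrations or buffers and across linkers. A negative Z-score can be read as non-binding.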
# Kdn(a2-3)Gal(b1-4)GlcNAc = target: Kdn(a2-3)Gal(b1-4)GlcNAc
# In short: as §1
# [1] = target: Kdn(a2-3)Gal(b1-4)[Fuc(a1-3)]GlcNAc
# In short: as §1
# Kdn(a2-6)Gal(b1-4)GlcNAc = target: Kdn(a2-6)Gal(b1-4)GlcNAc
# In short: as §1
# [2] = target: Man(a1-2)Man(a1-2)Man(a1-3)Man
# In short: as §1
# [3] = target: Man(a1-2)Man(a1-2)Man(a1-6)[Man(a1-3)]Man
# In short: as §1
# Man(a1-2)Man(a1-3)Man = target: Man(a1-2)Man(a1-3)Man
# In short: as §1
# [4] = target: Man(a1-2)Man(a1-3)[Man(a1-2)Man(a1-6)]Man
# In short: as §1
# [5] = target: Man(a1-2)Man(a1-3)[Man(a1-2)Man(a1-6)]Man(a1-6)[Man(a1-2)Man(a1-2)Man(a1-3)]Man
# In short: as §1
# [6] = target: Man(a1-2)Man(a1-3)[Man(a1-2)Man(a1-6)]Man(a1-6)[Man(a1-2)Man(a1-2)Man(a1-3)]Man(b1-4)GlcNAc(b1-4)GlcNAc
# In short: as §1
# [7] = target: Man(a1-2)Man(a1-3)[Man(a1-6)]Man(a1-6)[Man(a1-2)Man(a1-3)]Man(b1-4)GlcNAc(b1-4)GlcNAc
# In short: as §1
# [8] = target: Man(a1-2)Man(a1-6)[Man(a1-3)]Man(a1-6)[Man(a1-2)Man(a1-2)Man(a1-3)]Man
# In short: as §1
# [9] = target: Man(a1-2)Man(a1-6)[Man(a1-3)]Man(a1-6)[Man(a1-2)Man(a1-2)Man(a1-3)]Man(b1-4)GlcNAc(b1-4)GlcNAc
# In short: as §1
# Man(a1-3)[Man(a1-6)]Man = target: Man(a1-3)[Man(a1-6)]Man
# In short: as §1
# [10] = target: Man(a1-3)[Man(a1-6)]Man(a1-6)[Man(a1-2)Man(a1-3)]Man(b1-4)GlcNAc(b1-4)GlcNAc
# In short: as §1
# [11] = target: Man(a1-3)[Man(a1-6)]Man(a1-6)[Man(a1-3)]Man
# In short: as §1
# [12] = target: Man(a1-3)[Man(a1-6)]Man(a1-6)[Man(a1-3)]Man(b1-4)GlcNAc(b1-4)GlcNAc
# In short: as §1
# [13] = target: Man(a1-3)[Man(a1-6)]Man(b1-4)GlcNAc(b1-4)GlcNAc
# In short: as §1
# [14] = target: Man(a1-3)[Man(a1-6)]Man(b1-4)GlcNAc(b1-4)[Fuc(a1-6)]GlcNAc
# In short: as §1
# Man(a1-6)Man = target: Man(a1-6)Man
# In short: as §1
# Man(b1-4)GlcNAc = target: Man(b1-4)GlcNAc
# In short: as §1
# MurNAc(b1-4)GlcNAc = target: MurNAc(b1-4)GlcNAc
# In short: as §1
# Neu5Ac(a2-3)Gal = target: Neu5Ac(a2-3)Gal
# In short: as §1
# [15] = target: Neu5Ac(a2-3)Gal(b1-3)GalNAc
# In short: as §1
# [16] = target: Neu5Ac(a2-3)Gal(b1-3)GalNAc(b1-3)Gal(a1-4)Gal(b1-4)Glc
# In short: as §1
# [17] = target: Neu5Ac(a2-3)Gal(b1-3)GalNAc(b1-4)[Neu5Ac(a2-3)]Gal(b1-4)Glc
# In short: as §1
# [18] = target: Neu5Ac(a2-3)Gal(b1-3)GalNAc(b1-4)[Neu5Ac(a2-8)Neu5Ac(a2-3)]Gal(b1-4)Glc
# In short: as §1
# [19] = target: Neu5Ac(a2-3)Gal(b1-3)GalNAc6S
# In short: as §1
# [20] = target: Neu5Ac(a2-3)Gal(b1-3)GlcNAc
# In short: as §1
# [21] = target: Neu5Ac(a2-3)Gal(b1-3)GlcNAc(b1-2)Man
# In short: as §1
# [22] = target: Neu5Ac(a2-3)Gal(b1-3)GlcNAc(b1-2)Man(a1-3)[GlcNAc(b1-4)][Neu5Ac(a2-3)Gal(b1-3)GlcNAc(b1-2)Man(a1-6)]Man(b1-4)GlcNAc(b1-4)GlcNAc
# In short: as §1
# [23] = target: Neu5Ac(a2-3)Gal(b1-3)GlcNAc(b1-2)Man(a1-3)[Neu5Ac(a2-3)Gal(b1-3)GlcNAc(b1-2)Man(a1-6)]Man(b1-4)GlcNAc(b1-4)GlcNAc
# In short: as §1
# [24] = target: Neu5Ac(a2-3)Gal(b1-3)GlcNAc(b1-3)Gal(b1-3)GlcNAc
# In short: as §1
# [25] = target: Neu5Ac(a2-3)Gal(b1-3)GlcNAc(b1-3)Gal(b1-4)GlcNAc
# In short: as §1
# [26] = target: Neu5Ac(a2-3)Gal(b1-3)GlcNAc(b1-3)GalNAc
# In short: as §1
# [27] = target: Neu5Ac(a2-3)Gal(b1-3)GlcNAc(b1-4)Gal(b1-4)Glc
# In short: as §1
# [28] = target: Neu5Ac(a2-3)Gal(b1-3)GlcNAc(b1-6)GalNAc
# In short: as §1
# [29] = target: Neu5Ac(a2-3)Gal(b1-3)GlcNAc6S
# In short: as §1
binder,measurement,setting,value
B1,glycan array binding signal (z-score),Kdn(a2-3)Gal(b1-4)Glc,-0.227
same,glycan array binding signal (z-score),Kdn(a2-3)Gal(b1-4)GlcNAc,-0.432
same,glycan array binding signal (z-score),[1],0.924
same,glycan array binding signal (z-score),Kdn(a2-6)Gal(b1-4)GlcNAc,-0.416
same,glycan array binding signal (z-score),[2],-0.441
same,glycan array binding signal (z-score),[3],-0.333
same,glycan array binding signal (z-score),Man(a1-2)Man(a1-3)Man,-0.489
same,glycan array binding signal (z-score),[4],-0.393
same,glycan array binding signal (z-score),[5],-0.429
same,glycan array binding signal (z-score),[6],-0.408
same,glycan array binding signal (z-score),[7],-0.302
same,glycan array binding signal (z-score),[8],-0.388
same,glycan array binding signal (z-score),[9],-0.45
same,glycan array binding signal (z-score),Man(a1-3)[Man(a1-6)]Man,-0.227
same,glycan array binding signal (z-score),[10],6.64
same,glycan array binding signal (z-score),[11],-0.096
same,glycan array binding signal (z-score),[12],-0.352
same,glycan array binding signal (z-score),[13],-0.44
same,glycan array binding signal (z-score),[14],-0.45
same,glycan array binding signal (z-score),Man(a1-6)Man,-0.267
same,glycan array binding signal (z-score),Man(b1-4)GlcNAc,-0.381
same,glycan array binding signal (z-score),MurNAc(b1-4)GlcNAc,-0.427
same,glycan array binding signal (z-score),Neu5Ac(a2-3)Gal,-0.402
same,glycan array binding signal (z-score),[15],-0.406
same,glycan array binding signal (z-score),[16],-0.277
same,glycan array binding signal (z-score),[17],-0.397
same,glycan array binding signal (z-score),[18],-0.366
same,glycan array binding signal (z-score),[19],-0.437
same,glycan array binding signal (z-score),[20],-0.408
same,glycan array binding signal (z-score),[21],-0.309
same,glycan array binding signal (z-score),[22],-0.396
same,glycan array binding signal (z-score),[23],-0.344
same,glycan array binding signal (z-score),[24],-0.431
same,glycan array binding signal (z-score),[25],-0.413
same,glycan array binding signal (z-score),[26],-0.356
same,glycan array binding signal (z-score),[27],-0.455
same,glycan array binding signal (z-score),[28],0.119
same,glycan array binding signal (z-score),[29],-0.398
